From PubChem BioAssay AID624417 (National Center for Advancing Translational Sciences (NCATS), 2012)
Several values for one entry are separate records, joined by “and”; a condition that tells them apart may be missing. Equal values may be shown once. Screen size: about 410,000 compounds; about 6,400 (1.6%) were called active. The shares of active, inactive and inconclusive entries below differ from those in the screen. The call rests on the fitted dose curve; in most records, active means well fitted inhibition curve with a large enough effect; inconclusive means small, poorly fitted or top-dose-only effect; inactive means no such curve, though single readings can be large or run the other way. Where the call is inconclusive, the potency comes from a doubtful curve fit.

Target: Glucagon-like peptide 1 receptor (Homo sapiens) (UniProt P43220)
Assay: qHTS of GLP-1 Receptor Inverse Agonists (Inhibition Mode); further: nearly all actives have a fitted effect of over 55% in size
Settings: HEK293 GLP-1R CRE-luciferase, luminescence, 24 h, GLP-1R form is constitutively active; series mostly up to 38.3 µM
Procedure, shortened: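 Assay principle: reduced luminescence from a cAMP-responsive reporter in HEK293 cells co-expressing a constitutively active GLP-1R. Conditions: 24 hr compound incubation, 37 deg C, 5% CO2.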
Potency means the concentration at half of the fitted maximal effect; tags describe the fitted curve by direction and shape.

Chain of UniProt P43220 (P43220 whole entry, looked up): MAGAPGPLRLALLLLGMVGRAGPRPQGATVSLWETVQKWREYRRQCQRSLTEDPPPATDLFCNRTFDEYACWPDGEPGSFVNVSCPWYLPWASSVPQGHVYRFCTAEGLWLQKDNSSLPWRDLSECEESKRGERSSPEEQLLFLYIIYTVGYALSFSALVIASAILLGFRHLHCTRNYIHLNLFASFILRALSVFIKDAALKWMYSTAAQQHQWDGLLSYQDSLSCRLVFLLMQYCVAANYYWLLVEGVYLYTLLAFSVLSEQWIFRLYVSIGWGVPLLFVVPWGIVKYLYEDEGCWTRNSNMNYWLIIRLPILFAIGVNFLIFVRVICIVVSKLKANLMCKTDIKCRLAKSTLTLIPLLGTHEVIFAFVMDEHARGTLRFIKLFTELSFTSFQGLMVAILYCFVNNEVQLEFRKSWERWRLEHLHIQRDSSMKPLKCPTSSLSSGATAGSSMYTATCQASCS

Q: `Cc1ccc(NC(=O)c2cc(S(=O)(=O)N3CCOCC3)cs2)cc1` was tested. Which Potency did it give?
A: The Potency was inconclusive: 10 µM [inhibitor, partial curve, poor fit].

Q: How did the Potency turn out when `O=C(COc1cc(Cl)c(Cl)cc1Cl)NC(=O)NC1CCCC1` was run?
A: The Potency was inconclusive: 11.2 µM [inhibitor, partial curve, poor fit].

Q: Which Potency does the source give for `CCOc1ccc(N(CC(=O)NC2CCC(C)CC2)S(=O)(=O)c2c(C)noc2C)cc1` (stereo unspecified) here?
A: Its Potency is inconclusive: 6.31 µM [inhibitor, full curve, poor fit].

Q: `CN1C(=O)c2ccccc2Sc2ccc(NC(=O)Cc3ccc(Cl)cc3)cc21` was tested. Which Potency did it give?
A: Its Potency is inconclusive: 7.08 µM [inhibitor, partial curve, poor fit].

Q: For `Cc1ccc(C(=O)N/C(=C\c2ccco2)C(=O)NCCN2CCCCC2)cc1C`, which Potency is on record?
A: Its Potency is inconclusive: 7.08 µM [inhibitor, partial curve].

Q: `CC(C)(C)c1ccccc1NC(=O)c1cc(-c2ccncc2)nc2ccccc12` was tested. Which Potency did it give?
A: Its Potency is inconclusive: 28.2 µM [inhibitor, single point].

Q: For `Oc1ccccc1CN1CCN(C(c2ccccc2)c2ccccc2)CC1`, which Potency is on record?
A: Its Potency is inconclusive: 0.447 µM [inhibitor, full curve, poor fit].

Q: With `CC(=O)COc1ccc2c3c(c(=O)oc2c1C)CCCCC3` as the molecule, how does the Potency read?
A: The Potency was “inactive”.

Q: `CCC1CN(C(=O)NCc2ccc(F)cc2)c2cc(C)ccc2O1` (stereo unspecified) was tested. Which Potency did it give?
A: The Potency was inconclusive: 28.2 µM [inhibitor, single point] and inconclusive: 11.2 µM [inhibitor, partial curve, poor fit].

Q: Which Potency does the source give for `COc1ccc(NC(=O)Nc2cccc3c2O[C@H](CN(C)C(=O)Nc2c(C)noc2C)[C@@H](C)CN([C@H](C)CO)C3=O)cc1` here?
A: The Potency was “inactive”.

Q: How did the Potency turn out when `Cc1ccc(C(=O)OC(C)C(=O)NC2CCCCC2)cc1S(=O)(=O)N1CCCCC1` (stereo unspecified) was run?
A: The Potency was inconclusive: 3.55 µM [inhibitor, partial curve, poor fit].

Q: Which Potency does the source give for `CC(C)(C)c1ccc(OCCC(=O)OCC(=O)NC(=O)NC2CCCC2)cc1` here?
A: Its Potency is inconclusive: 28.2 µM [inhibitor, single point].

Q: For `N#CC1=C(N)Oc2c(ccc3cccnc23)C1c1ccccc1` (stereo unspecified), which Potency is on record?
A: The Potency was inconclusive: 1 µM [inhibitor, full curve].

Q: How did the Potency turn out when `CN(C(=O)Nc1ccc(Cl)cc1Cl)[C@H]1c2cc(Br)ccc2OC[C@H]1CO` was run?
A: Its Potency is inconclusive: 12.6 µM [inhibitor, single point].

Q: Which Potency does the source give for `O=C(CSc1nnc(-c2cccs2)n1Cc1ccccc1)NCc1ccc2c(c1)OCO2` here?
A: Its Potency is inconclusive: 22.4 µM [inhibitor, single point].

Q: For `O=C(COc1ccccc1[N+](=O)[O-])Nc1ccc(NC(=O)c2cc3ccccc3o2)cc1`, which Potency is on record?
A: The Potency was inconclusive: 10 µM [inhibitor, single point].

Q: With `CCCCCNC(=O)c1ccc2c(=O)n(CC3CCCO3)c(=O)[nH]c2c1` (stereo unspecified) as the molecule, how does the Potency read?
A: Its Potency is inconclusive: 14.1 µM [inhibitor, single point].

Q: `Cc1ccc(S(=O)(=O)Nn2c(O)c(C=C3N=c4ccccc4=N3)sc2=S)cc1` was tested. Which Potency did it give?
A: The Potency was inconclusive: 5.62 µM [inhibitor, full curve, poor fit].

Q: With `O=[N+]([O-])c1ccc(NC2CCCC2)cc1` as the molecule, how does the Potency read?
A: Its Potency is “inactive”.

Q: With `CC(C)(C)c1cc(Cl)c(O)c(NC(=S)NC(=O)c2cccnc2)c1` as the molecule, how does the Potency read?
A: Its Potency is inconclusive: 10 µM [inhibitor, partial curve, poor fit].

Q: Which Potency does the source give for `COC(=O)c1c(NC(=O)CCl)sc(C(=O)N2CCOCC2)c1C` here?
A: Its Potency is inconclusive: 28.2 µM [inhibitor, single point].

Q: Which Potency does the source give for `Cn1cnnc1SC(C(=O)Nc1cccc(C(F)(F)F)c1)c1ccccc1` (stereo unspecified) here?
A: Its Potency is inconclusive: 7.94 µM [inhibitor, partial curve, poor fit].

Q: `C=CCn1c(N)c(C(=O)OCC(C)C)c2nc3ccccc3nc21` was tested. Which Potency did it give?
A: Its Potency is inconclusive: 28.2 µM [inhibitor, single point].

Q: `O=C(C(=O)c1cc(Br)ccc1O)c1cc(Br)ccc1O` was tested. Which Potency did it give?
A: The Potency was inconclusive: 7.08 µM [inhibitor, partial curve, poor fit].

Q: With `COCc1cc(C)nc(NC2CC(C)(C)NC(C)(C)C2)c1C#N` as the molecule, how does the Potency read?
A: The Potency was inconclusive: 11.2 µM [inhibitor, partial curve, poor fit].

Q: How did the Potency turn out when `COc1ccc(-n2ncc3c(NC(C)C)ncnc32)cc1` was run?
A: Its Potency is inconclusive: 10 µM [inhibitor, single point].

Q: `CNc1oc(-c2ccccc2)nc1C#N` was tested. Which Potency did it give?
A: The Potency was “inactive”.

Q: How did the Potency turn out when `CCCCCOc1ccc(/C=C/C(=O)NCCc2nc3ccccc3[nH]2)cc1OC` was run?
A: The Potency was inconclusive: 12.6 µM [inhibitor, partial curve, poor fit].

Q: How did the Potency turn out when `CC(=O)c1sc(NC(=O)c2ccccc2)nc1-c1ccccc1` was run?
A: The Potency was inconclusive: 10 µM [inhibitor, partial curve].

Q: With `COC(=O)Cn1c(CCS(=O)(=O)c2ccc(C)cc2)nc2ccccc21` as the molecule, how does the Potency read?
A: The Potency was “inactive”.

Q: `Cc1ccc2nc(NC(=O)c3ccco3)sc2c1` was tested. Which Potency did it give?
A: The Potency was inconclusive: 1.26 µM [inhibitor, full curve, poor fit].

Q: Which Potency does the source give for `CC(C)c1ccc(/C=C2\SC(=O)N(CC(=O)NC3C=CS(=O)(=O)C3)C2=O)cc1` (stereo unspecified) here?
A: Its Potency is inconclusive: 28.2 µM [inhibitor, single point].

Q: With `CC1(C(=O)NCCC(F)(F)F)Cc2c(-c3ccccc3)ccnc2O1` (stereo unspecified) as the molecule, how does the Potency read?
A: The Potency was inconclusive: 8.91 µM [inhibitor, partial curve, poor fit].

Q: Which Potency does the source give for `CCOc1ccc(OCC)c(NC(=O)c2cnn(-c3ccc(F)cc3)c2-n2cccc2)c1` here?
A: Its Potency is inconclusive: 11.2 µM [inhibitor, partial curve, poor fit].

Q: Which Potency does the source give for `CCc1ccc(-n2nc(C)c3c(C)cc(=O)n(CC(=O)Nc4cc(Cl)ccc4OC)c32)cc1` here?
A: The Potency was “inactive”.

Q: How did the Potency turn out when `O=C(CCC(=O)c1ccc(F)cc1)NCc1ccccc1C(F)(F)F` was run?
A: The Potency was inconclusive: 8.91 µM [inhibitor, partial curve].

Q: With `CN(c1ccc(C(=O)N2CCCCC2)cc1)S(=O)(=O)c1cccs1` as the molecule, how does the Potency read?
A: The Potency was inconclusive: 0.501 µM [inhibitor, full curve, poor fit].

Q: `COC(=O)c1ccccc1S(=O)(=O)NNC(=O)Nc1ccccc1` was tested. Which Potency did it give?
A: The Potency was inconclusive: 8.91 µM [inhibitor, partial curve, poor fit].

Q: For `COc1ccc(NC(=O)CN2CCCC2)cc1`, which Potency is on record?
A: Its Potency is “inactive”.

Q: Which Potency does the source give for `Cc1cccc(C(=O)NCCc2nc3ccccc3n2CCC(C)C)c1` here?
A: The Potency was inconclusive: 10 µM [inhibitor, partial curve, poor fit].

Q: Which Potency does the source give for `Oc1c(Br)cc(Br)cc1C=NCc1ccc(F)cc1` here?
A: Its Potency is inconclusive: 8.91 µM [inhibitor, partial curve, poor fit].

Q: With `C=CCn1c(O)c(C2=c3ccccc3=NC2=O)sc1=Nc1ccc(O)cc1` as the molecule, how does the Potency read?
A: Its Potency is inconclusive: 10 µM [inhibitor, partial curve, poor fit].

Q: Which Potency does the source give for `O=C(CCc1c[nH]c2ccccc12)NCCc1ccc(Cl)cc1` here?
A: The Potency was inconclusive: 10 µM [inhibitor, partial curve, poor fit].

Q: `CCCCn1cc2c(c1-c1ccc(Br)cc1)c(=O)n(C)c(=O)n2C` was tested. Which Potency did it give?
A: Its Potency is “inactive”.

Q: How did the Potency turn out when `Cc1cccc(NC(=S)N2CCC(C(=O)c3ccc(F)cc3)CC2)c1` was run?
A: The Potency was inconclusive: 1.41 µM [inhibitor, full curve, poor fit].

Q: How did the Potency turn out when `CC(C)(C)C(=O)NC(=S)N1CCOCC1` was run?
A: The Potency was “inactive”.

Q: `CCc1cccc(C)c1Nc1nn2c(=O)c3ccccc3nc2s1` was tested. Which Potency did it give?
A: Its Potency is “inactive”.

Q: Which Potency does the source give for `Cc1ccc(C(=O)Nc2ccc3c(c2)OCO3)cc1` here?
A: The Potency was inconclusive: 10 µM [inhibitor, partial curve, poor fit].

Q: With `COC(=O)c1c(NC(=O)/C=C/C(=O)O)sc(C)c1-c1ccc(C(C)C)cc1` as the molecule, how does the Potency read?
A: Its Potency is inconclusive: 3.55 µM [inhibitor, full curve, poor fit].

Q: How did the Potency turn out when `COc1cccc(/C=N/NC(=O)c2c(C)nc3ccc(Br)cn23)c1O` was run?
A: Its Potency is inconclusive: 0.501 µM [inhibitor, full curve, poor fit].

Q: With `COc1ccc(-c2cc(NC=O)c3ncc(-c4ccc(OC)c(OC)c4)n3c2)c(OC)c1` as the molecule, how does the Potency read?
A: Its Potency is “inactive”.

Q: Which Potency does the source give for `Cc1ccc(-c2nnc(N3CCN(S(C)(=O)=O)CC3)c3ccccc23)cc1` here?
A: The Potency was inconclusive: 10 µM [inhibitor, partial curve, poor fit].

Q: For `CCN1/C(=C/C=C/c2oc3ccc(-c4ccccc4)cc3[n+]2CC)Oc2ccc(-c3ccccc3)cc21`, which Potency is on record?
A: The Potency was inconclusive: 15.8 µM [inhibitor, partial curve, poor fit].

Q: How did the Potency turn out when `Cn1c(=O)c2c(nc(N3CCCCCC3)n2Cc2cccc3ccccc23)n(C)c1=O` was run?
A: Its Potency is inconclusive: 7.94 µM [inhibitor, partial curve, poor fit].

Q: Which Potency does the source give for `CCOC(=O)C1CCN(S(=O)(=O)c2ccc(C)c(C)c2)CC1` here?
A: Its Potency is inconclusive: 10 µM [inhibitor, single point].

Q: For `Cc1cnc(C(=O)N2CCCC(C(=O)c3ccc(C(C)(C)C)cc3)C2)cn1` (stereo unspecified), which Potency is on record?
A: The Potency was inconclusive: 8.91 µM [inhibitor, partial curve, poor fit].

Q: `CCN(CC)c1ccc(NC(=S)NC(=O)c2ccco2)cc1` was tested. Which Potency did it give?
A: The Potency was inconclusive: 28.2 µM [inhibitor, single point].

Q: With `CCn1c(SCC(=O)NC2CCCCC2)nnc1-c1cc2cccc(OC)c2o1` as the molecule, how does the Potency read?
A: The Potency was inconclusive: 15.8 µM [inhibitor, partial curve, poor fit].

Q: Which Potency does the source give for `CCOC(=O)c1ccc(N2C(=O)c3n[nH]c(-c4ccco4)c3C2c2ccccc2OC)cc1` (stereo unspecified) here?
A: Its Potency is inconclusive: 22.4 µM [inhibitor, partial curve, poor fit].

Q: Which Potency does the source give for `O=C(NC(=S)N1CCN(C/C=C/c2ccccc2)CC1)c1ccc(Cl)nc1` here?
A: Its Potency is inconclusive: 3.98 µM [inhibitor, full curve, poor fit].

Q: `Cc1nnc(SCC(=O)NC(=O)Nc2ccc3c(c2)OCCO3)n1N` was tested. Which Potency did it give?
A: Its Potency is “inactive”.
